± gives the standard deviation of the averaged measurements. The list shows a part of the results.
system: PfAP2-EXP AP2 domain (GST-tagged); assay: gcPBM binding intensity (ln(normalized median fluorescence intensity)); higher = stronger DNA binding
Procedure, shortened: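 Binding intensity is the highest Masliner-normalised natural-log median intensity over replicate spots in either probe orientation. To obtain it, GST-tagged P. falciparum DNA-binding domains made in E. coli were incubated for 1 h on an Agilent 4 × 180k array of primer-extended double-stranded 36-bp intergenic genomic probes plus negative controls. Detection used Alexa488 anti-GST antibody with scanning at 488 nm.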

Sequence	gcPBM binding intensity (ln)
TACACTTTTTATGAAGTGCATGTATAGCTCTTAAAA [GTGCAC_site9595]	8.46 ± 0.35
ATTTACATAATAAAATGTACATTTATAAATATTATA [XGTACX_site1901]	8.27 ± 0.33
CATTATTCATTTTGGATGCACTGACAGAAAAATGGT	8.79 ± 0.33
ATGCTCAGGAAAACATGTACAAAATTATTTGTTATA [XGTACX_site4306]	8.31 ± 0.34
AGTTTTTATAAAAATAGTACATATTTATTAATCTGT [XGTACX_site5881]	8.21 ± 0.42
CCCACAGACGGACACACACACACACCGACACATATA [CACACA_site4356]	8.89 ± 0.3
TGCAGTCTGGAGAAACGTACACAGTATCTGGTAACC [XGTACX_site2543]	8.78 ± 0.29
TTTTGTGCTTAAAAAAGTACAAAATATAAAAAAAAT [XGTACX_site7876]	8.59 ± 0.4
TTCTATTTTAATATCTGTACATAATAAAGATCCATT [XGTACX_site1142]	8.5 ± 0.38
AAAATTGAACCTGACAAGGTATTTTATTATTTATTA [TGCATGCA_negctrl_site181]	7.96 ± 0.45
CATATATAAAAAAACACACACATATATATATATATA [CACACA_site1195]	10.2 ± 0.61
ACATAAATATAAACGTGTACATATATAAATATATAT [XGTACX_site7293]	8.43 ± 0.3
ATATATTTTAATTGTTGTACATATTAAATAAATAGG [XGTACX_site2311]	8.47 ± 0.49
ATTTTTTTTTTTTATAGTGGATCCACATTTGCCATT [CACACA_negctrl_site1284]	8.85 ± 0.55
TATATTTTATATATGGTGCAACTTTTATTTAAATAA	8.64 ± 0.042
TTACAAGTAAAAGGTACACACATTATAAATACAAAT [CACACA_site4752]	9.01 ± 0.52
AAAATTAAACTCACACCACACACAAAAAAAAAAAAA [CACACA_site8131]	8.47 ± 0.45
AAGAAAGACATTACGTGTACCAAACAACCTACCAAC [XGTACX_site4219]	9.03 ± 0.62
TGTTTTATCTTATATGCACACGATAAAAAAAAAAAA [CACACA_site2674]	8.63 ± 0.18
ATGTATATGTCTATATGTACTTATATTTTATTTTTT [XGTACX_site5902]	8.3 ± 0.28
AAAATAAATAAATACACACACACGAATATTTATATA [CACACA_site6892]	8.63 ± 0.54
ATTATTTCAATTTTTTTTGTTTTTAAAAAAAAAAAT [CACACA_negctrl_site1387]	8.31 ± 0.42
AAAAAAAAAAAAAAAAGTACACATCATTTTATGAAA [XGTACX_site1402]	8.59 ± 0.13

Sequence	gcPBM binding intensity (ln)
ATTATAAAAATATCGTGTACATATTTTTTAAAATAA [XGTACX_site5072]	8.23 ± 0.11
GAAAACAAAATGGTAACACACAAATGTAAATAGTAT [CACACA_site2113]	8.63 ± 0.27
AAAAAAAAAAAAAAAAGTACTCTATAAGTAACATTT [XGTACX_site6973]	8.455 ± 0.007
ATTTTTTTGTTATTGTTGAAAAGATGGTTCTTTTTT [CACACA_negctrl_site1346]	8.59 ± 0.53
AATTTCTTATTTTGTACACACAATAAATATTCACAT [CACACA_site1612]	8.72 ± 0.33
ATGAACATATTTTTTTGTACTTATGAAAATATGTTA [XGTACX_site5996]	8.51 ± 0.38
AAGTTAGGATAGATCCAATAATTTTTAGTTTCTCTT [GTGCAC_negctrl_site272]	8.09 ± 0.48
TAGTAGTTATCATTAACATGCAATAATATTATTTAA [TGCATGCA_site178]	8.38 ± 0.3
ATATAATTATAAAATAAACACACATATATATTTATA [CACACA_site8039]	8.19 ± 0.49
TAATGTTACACAAACTTTTCATTCTTTTTAATAAAT [TGCATGCA_negctrl_site331]	8.3 ± 0.33
ATATATATATATATATGTACATAGAGAAGTATCTTT [XGTACX_site4737]	10.4 ± 0.17
TTATTTATTTATAATTGTACATTGCAAATGAATTTA [XGTACX_site4083]	8.22 ± 0.3
AACATTTTAAATTATACACACATTTTGAATATATAT [CACACA_site3470]	8.46 ± 0.4
TGTTGTTGTAATTATTGTACGTTATGCGATTATTAT [XGTACX_site7005]	8.53 ± 0.17
TATACACCCAGACACACACACACACCCAAAAAAAAA [CACACA_site497]	8.44 ± 0.46
TCAATTAGACGAAAATGTACATATGTATATATTTTT [XGTACX_site5027]	8.32 ± 0.37
AAAATAAACTATAGTACACACTTATTATTATGAAAT [CACACA_site5488]	8.52 ± 0.3
GATATATTTTATATATGTACATACAAGGGTAAATAT [XGTACX_site1202]	8.81 ± 0.36
AAAATATGTAGCTACACACACATAAACAAAATAACA [CACACA_site1007]	8.84 ± 0.48
ATTTTATAAAGGAAGTGTACTAATAAATTCAAATTA [XGTACX_site3922]	8.57 ± 0.11
TCGATGTTGGTAGGATGTACGGTACCGGTAGTATTT [XGTACX_site4214]	8.85 ± 0.64
AAAAAAGAATTGTGCACACACAAAAAATGTTCATAA [CACACA_site1103]	8.53 ± 0.11

— the supplement of paper PMC11417369
